This is an account of results in the supplement of paper PMC12645437, “Orthogonal IMiD-Degron Pairs Induce Selective Protein Degradation in Cells” (ACS Chemical Biology, 2025).

The list shows a part of the results.
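Further: jurkat cells carrying a lentiviral library of mutant zinc finger degrons fused to EGFP plus mCherry, mCherry+ cells FACS sorted, degron abundance counted by next-generation sequencing.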

For this experiment, the target named is no compound (DMSO). Briefly: log2 fold change of degron read counts, EGFP-low vs EGFP+ sorted cells; higher = lower degron-EGFP level without compound (poor expression or instability). The following applies: compound: DMSO control; 18 h.
Take FKCDVCGASFTQKGNLLRHIKL: the “log2 fold change of degron read counts” value is -2.47.

Take FYCEICGRKFTQKGNLLRHIKL: the “log2 fold change of degron read counts” value was -1.02.

With FDCEICGAGFTQKGNLLRHIKL, the “log2 fold change of degron read counts” value is -1.48.

On to FDCEICGHLFTQKGNLLRHIKL, for which the “log2 fold change of degron read counts” value worked out at 0.856.

In the case of FSCPQCGACFTQKGNLLRHIKL, the “log2 fold change of degron read counts” value was -0.796.

For the sequence LDCPICGFGCTQKGNLLRHIKL, the “log2 fold change of degron read counts” value was determined as 0.412.

For the sequence FLCPQCGAKFTQKGNLLRHIKL, the “log2 fold change of degron read counts” value was -1.37.

Take FKCSVCGHEFTQKGNLLRHIKL: the “log2 fold change of degron read counts” value is -1.

Take FVCNQCGAHFTQKGNLLRHIKL: the “log2 fold change of degron read counts” value was -0.651.

Take FSCSVCGHAFTQKGNLLRHIKL: the “log2 fold change of degron read counts” value is -0.487.

Turning to LFCPICGFWCTQKGNLLRHIKL, the “log2 fold change of degron read counts” value is 2.38.

For the sequence FKCDICGAIFTQKGNLLRHIKL, the “log2 fold change of degron read counts” value was -0.617.

For the sequence FLCPICGHFFTQKGNLLRHIKL, the “log2 fold change of degron read counts” value stood at 0.774.

Turning to FLCPICGRLFTQKGNLLRHIKL, the “log2 fold change of degron read counts” value stood at 0.643.
